Measurements taken from PubChem BioAssay AID504832 (National Center for Advancing Translational Sciences (NCATS), 2011).
The whole screen tested about 310,000 compounds, of which about 18,000 (5.8%) were called active. The shares of active, inactive and inconclusive entries below differ from those in the screen. The call rests on the fitted dose curve; in most records, active means well fitted inhibition curve with a large enough effect; inconclusive means small, poorly fitted or top-dose-only effect, or another doubt; inactive means no such curve, though single readings can be large or run the other way. Potencies of inconclusive entries are left out as doubtful fits.

Test: Primary qHTS for delayed death inhibitors of the malarial parasite plastid, 48 hour incubation
Conditions: P. falciparum luciferase growth in erythrocytes; series mostly up to 28.7 µM
In short: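 Parasite viability was followed by luminescence of a genomically integrated firefly luciferase. Cultures held 0.1% parasitemia at 2% hematocrit (final), incubated under 5% CO2 at 37 C.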
Potency means the concentration at half of the fitted maximal effect; tags describe the fitted curve by direction and shape.

With COc1ccc(C(=O)COC(=O)C2CCN(S(=O)(=O)c3cccc4cccnc34)CC2)cc1 as the compound, how does the Potency read?
The Potency was “inactive”.

With NC(=O)Nc1ccccc1C(=O)N1CCC(O)(c2ccc(Cl)cc2)CC1 as the compound, how does the Potency read?
Its Potency is “inactive”.

With COc1ccccc1C(C)NC(=O)C1CCN(S(=O)(=O)c2cccs2)CC1 (centres undefined) as the compound, how does the Potency read?
The Potency was inconclusive [inhibitor, single point].

With FC(F)(F)C1=CC(c2ccc(Br)cc2)=NCCN1 as the compound, how does the Potency read?
The Potency was inconclusive [inhibitor, single point].

For CC(=C/c1ccc(C(C)C)cc1)/C=N/NC(=O)Cn1nc(C)cc1C, which Potency is on record?
The Potency was “inactive”.

Which Potency does the source give for COc1ccccc1Nc1nc(N)nc(CN2CCN(Cc3ccccc3)CC2)n1 here?
Its Potency is inconclusive [inhibitor, single point].

For CCOC(=O)N1CCN(Cc2nc(N)nc(Nc3ccc(C)cc3)n2)CC1, which Potency is on record?
Its Potency is “inactive”.

With Cc1ccccc1CN(C)Cc1cc(=O)oc2c(C)c(C)ccc12 as the compound, how does the Potency read?
The Potency was inconclusive [inhibitor, single point].

For O=C(NCCC(=O)N(CCc1ccccc1)Cc1ccccc1)c1ccc([N+](=O)[O-])cc1, which Potency is on record?
The Potency was inconclusive [inhibitor, partial curve, poor fit].

Which Potency does the source give for CC(CNC(=S)Nc1cc(F)cc(F)c1)CSc1ccc(Cl)cc1 (centres undefined) here?
The Potency was “inactive”.

For O=C(COc1ccc2ccc(=O)oc2c1)Nc1ccc(N2CCCCC2)cc1, which Potency is on record?
Its Potency is inconclusive [inhibitor, single point].

Which Potency does the source give for CCn1c(C(=O)N2CCC(C(=O)N3CCN(c4ccccn4)CC3)CC2)cc2sccc21 here?
The Potency was inconclusive [inhibitor, partial curve].

For CC(C)CC1C(C#N)=C(N)OC2=C1C(=O)CC(c1ccccc1)C2 (centres undefined), which Potency is on record?
Its Potency is inconclusive [inhibitor, partial curve, poor fit].

Which Potency does the source give for CCCC(=O)N/C(N)=N/c1nc(C)c2ccccc2n1 here?
Its Potency is inconclusive [inhibitor, partial curve, poor fit].

For N#Cc1cnc(N)c(Br)c1, which Potency is on record?
Its Potency is inconclusive [inhibitor, partial curve, poor fit].

With CN1CCN(c2ccccc2NC(=O)c2sc3ccccc3c2Cl)CC1 as the compound, how does the Potency read?
The Potency was inconclusive [inhibitor, partial curve, poor fit].

With COC(=O)c1c(NC(=O)C(C)C)sc(C(=O)N2CCOCC2)c1C as the compound, how does the Potency read?
Its Potency is inconclusive [inhibitor, partial curve, poor fit].

Which Potency does the source give for Cc1ccccc1NC(=O)CSC(N)=O here?
The Potency was inconclusive [inhibitor, partial curve].

For S=C(Nc1cccc(Br)c1)c1ccccc1, which Potency is on record?
Its Potency is “inactive”.

With COC(=O)Cc1c(C(=O)OC)nnn1-c1cccc(C(F)(F)F)c1 as the compound, how does the Potency read?
Its Potency is “inactive”.

For COc1ccc(CN(C(=O)CN2C(=O)COc3ccccc32)C2CCCC2)c(OC)c1, which Potency is on record?
The Potency was inconclusive [inhibitor, single point].

For Cc1ccc(S(=O)(=O)N2CCCOC2CNC(=O)C(=O)NCCc2c[nH]c3ccccc23)cc1 (centres undefined), which Potency is on record?
The Potency was inconclusive [inhibitor, partial curve, poor fit].

Which Potency does the source give for COc1cccc(-c2c(NC(=O)c3ccco3)oc3ccc(Cl)cc3c2=O)c1 here?
Its Potency is “inactive”.

For COCCN(C(=O)COC(=O)c1cc(C)n(-c2ccccc2)c1C)c1c(N)n(Cc2ccccc2)c(=O)[nH]c1=O, which Potency is on record?
Its Potency is inconclusive [inhibitor, single point].

Which Potency does the source give for CCN(Cc1cc(OC)c(OC)c(OC)c1)C(=S)Nc1cccc(SC)c1 here?
Its Potency is inconclusive [inhibitor, single point].

For CCc1ccc(C(=O)Nc2ccc(C)c(NS(C)(=O)=O)c2)cc1, which Potency is on record?
Its Potency is “inactive”.

Which Potency does the source give for CCOc1ccc(CCNC(=O)CCC(=O)N2CCSc3ccccc32)cc1OCC here?
The Potency was inconclusive [inhibitor, partial curve, poor fit].

With CCN(CC)C(=O)c1sc(N)c(C(=O)OC(C)C)c1C as the compound, how does the Potency read?
Its Potency is inconclusive [inhibitor, single point].

Which Potency does the source give for COc1cc(C2C(C#N)=C(N)N(c3sc4c(c3C#N)CCCC4)C3=C2C(=O)CC(C)(C)C3)cc(OC)c1OC (centres undefined) here?
Its Potency is inconclusive [inhibitor, partial curve].

With COc1ccccc1-c1ccc(SCc2ccccc2)nn1 as the compound, how does the Potency read?
Its Potency is “inactive”.

For CCOC(=O)c1c(-c2ccc(OC)cc2)csc1NC(=O)COc1ccc2c(C)cc(=O)oc2c1, which Potency is on record?
The Potency was “inactive”.

Which Potency does the source give for Cc1ccc2nc(-c3ccncc3)cc(C(=O)Nc3ccncc3)c2c1 here?
The Potency was active: 13.1 µM.

For Cc1ccc(NC(=O)CCNS(=O)(=O)c2ccccc2)cc1S(=O)(=O)N1CCOCC1, which Potency is on record?
Its Potency is inconclusive [inhibitor, partial curve].

Which Potency does the source give for Cc1ccccc1Cn1c(=O)n(C)c(=O)c2sccc21 here?
The Potency was “inactive”.

Which Potency does the source give for CCOC(=O)C1=C(C)N(c2ccccc2)C(=O)/C1=C\c1ccc(O)c(OC)c1 here?
Its Potency is inconclusive [inhibitor, partial curve, poor fit].

For O=C(c1ccc(-c2ccccc2)c(F)c1)C1CCCN(C(=O)c2cncs2)C1 (centres undefined), which Potency is on record?
Its Potency is inconclusive [inhibitor, single point].

For O=C(Nc1cccnc1)NC1CCCCC1, which Potency is on record?
Its Potency is inconclusive [inhibitor, full curve, poor fit].

Which Potency does the source give for COc1ccc(Cl)cc1NC(=O)C1CCCO1 (centres undefined) here?
The Potency was “inactive”.

Which Potency does the source give for C=C(C)Cn1c(=O)c2c(nc3n2CC(C)CN3Cc2ccccc2)n(C)c1=O (centres undefined) here?
The Potency was inconclusive [inhibitor, full curve].

Which Potency does the source give for CC(=O)N1CCOc2cc(S(=O)(=O)Nc3c(C)cccc3C(C)C)c(Cl)cc21 here?
Its Potency is active: 8.28 µM.

For Cc1ccc(N2C(=O)C3CC(c4ccccc4)=C4C5C=CC(C6C(=O)N(c7ccc(C)cc7C)C(=O)C56)C4C3C2=O)c(C)c1 (centres undefined), which Potency is on record?
The Potency was active: 2.08 µM.

For O=C(Cc1ccccc1[N+](=O)[O-])NCCCc1ccccc1, which Potency is on record?
Its Potency is “inactive”.

With COc1cccc(Nc2c([N+](=O)[O-])cncc2[N+](=O)[O-])c1 as the compound, how does the Potency read?
Its Potency is inconclusive [inhibitor, full curve, poor fit].

With COc1ccc(N=c2cc(-c3ccc(OC)cc3)oc3ccccc23)cc1 as the compound, how does the Potency read?
The Potency was inconclusive [inhibitor, partial curve, poor fit].
